Molecules are shown by their SMILES.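 Five compound concentrations were applied to cells in 96-well plates for 48 hours; endpoints were derived by simple linear interpolation of the resulting dose-response curve. GI50 marks 50% less growth. Definition used: TGI = concentration required for complete inhibition of growth.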 Square brackets hold non-standard residues; d marks the D form. Peptide text beside a SMILES is read from it. * marks the point of attachment. Decanoyl = CCCCCCCCCC(=O)*; Leu(ol) = CC(C)C[C@H](N)CO; Iva = CC[C@](C)(N)C(=O)O; Aib = CC(C)(N)C(=O)O

We go through three molecules from PubChem BioAssay (NCI).

For the experiment, the system named is NCI-H322M lung. In words: NCI tumour cell line growth inhibition, 48 h.
`CCCCCCCCCC(=O)N[C@@](C)(CC)C(=O)N1CCC[C@H]1C(=O)N[C@@H](CC(C)C)C(=O)N[C@@](C)(CC)C(=O)N[C@@H](CCC(N)=O)C(=O)N[C@H](CCC(N)=O)C(=O)NC(C)(C)C(=O)NC(C)(C)C(=O)N[C@@H](CCC(N)=O)C(=O)N[C@H](CC(C)C)C(=O)N[C@H](CO)CC(C)C` (Decanoyl-[Iva]PL[Iva]Q[dQ][Aib][Aib]Q[dL][Leu(ol)]): the GI50 is 6 µM and the TGI is 18.9 µM.
`COC(=O)c1ccc(NC2=C(Cl)C(=O)C(C)=C(C)C2=O)cc1`: the GI50 is > 100 µM and the TGI is > 100 µM.
As to `CCOC(=O)c1ccc(NC2=C(Cl)C(=O)c3nc(C)ccc3C2=O)cc1`, the GI50 was 16.6 µM and the TGI was 33 µM.
